# Results published in PubChem BioAssay AID485313 (National Center for Advancing Translational Sciences (NCATS), 2010).
# About 7,600 (2.4%) of roughly 320,000 compounds were called active. Inconclusive results, whose numbers are uncertain, are shown with a selection of clear calls. Calls come from the whole dose curve; as a rule, active = well fitted activation curve with a large enough effect; inconclusive = small, poorly fitted or top-dose-only effect; inactive = no such curve, though single readings can be large or run the other way. No potency is given beside an inconclusive call; the fits are too rough.
# Experiment: qHTS Assay for NPC1 Promoter Activators; note: nearly all actives have a fitted effect of over 60% in size
# Details: Huh7 NPC1 promoter luciferase reporter, 24 h; series mostly up to 9.22 µM
# Outline: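 Luminescence read-out of NPC1 promoter-driven luciferase in stably transfected Huh7 cells; compounds delivered in DMSO and left 24 h at 37C, 5% CO2, qHTS titration format.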
# Potency is the fitted concentration of half-maximal effect; tags give direction and shape of the fitted curve.
row,Structure (SMILES),Potency
1,COc1cccc(C(=O)NNC(=O)c2cccc(F)c2)c1,"inconclusive [activator, partial curve]"
2,O=c1[nH]c(-c2ccccn2)cc2ccccc12,"inconclusive [activator, partial curve]"
3,CN(Cc1ccc(F)cc1)C(=O)CCc1nnc(-c2ccccc2)o1,"inconclusive [activator, single point]"
4,Cc1nc2c(-c3ccccc3)c(C)nn2c(N)c1-c1ccccc1,active: 2.24 µM
5,CSc1ccc(/C=N/NC(=O)c2cc(O)cc(O)c2)cc1,"inconclusive [activator, single point]"
6,CCN(CC)S(=O)(=O)c1cccc(-c2nc3n(n2)Cc2ccccc2-3)c1,"inconclusive [activator, partial curve]"
7,C=CCOc1ccc(C(=O)Nc2ncn[nH]2)cc1,"inconclusive [activator, partial curve]"
8,Cc1ccc(C(=O)OCC(=O)N2CCC(C)CC2)cc1S(=O)(=O)N1CCCCC1,inactive
9,CSc1ccccc1-c1nnc(-c2ccc(Cl)cc2Cl)o1,"inconclusive [activator, single point]"
10,O=c1n(Cc2ccccc2Cl)nc2n1-c1ccccc1SC2,"inconclusive [activator, partial curve]"
11,CC(C)(C)c1ccc(NC(=O)Nc2ccc(F)cc2)cc1,active: 1.78 µM
12,Cc1csc(NC(=O)C2COc3ccccc3O2)n1 (stereo unspecified),"inconclusive [activator, partial curve]"
13,COCCNC(=O)C(c1ccccc1F)N(C(=O)C(=O)NC1CCCC1)C1CCCCC1 (stereo unspecified),inactive
14,Cc1ccnc(SCC(=O)c2cccs2)n1,active: 3.55 µM
15,Cc1c(NC(=O)c2ccc(Br)o2)cccc1C(=O)O,"inconclusive [activator, partial curve]"
16,Cc1cnc(NC(=O)c2ccco2)s1,"inconclusive [activator, single point]"
17,O=C(Nc1ccccc1C(=O)NCCc1ccccc1)c1cnccn1,"inconclusive [activator, single point]"
18,CSCC(=O)N1CCCC(CNC(=O)c2ccccc2Cl)C1 (stereo unspecified),inactive
19,COc1ccccc1/C=C\C(=O)NCC(=O)N/N=C/c1ccc(O)cc1O,inactive
20,Nc1cc(-c2ccccc2)nn1S(=O)(=O)c1ccc(Br)cc1,inactive
21,Cc1ccc2nc(NCCc3ccccc3)c3nncn3c2c1,"inconclusive [activator, single point]"
22,Oc1ccc(/C=N/N2CCCCC2)c(O)c1,"inconclusive [activator, single point]"
23,O=C(COc1ccc(-n2ccnc2)cc1)Nc1cccc(Cl)c1,inactive
24,Cc1ccc(OC(=O)c2sc3ncn(C)c(=O)c3c2C)cc1,active: 2.82 µM
25,CC(C)(C)NC(=O)N1CCN(c2nc(-c3ccccc3)ns2)CC1,"inconclusive [activator, partial curve]"
26,COc1ccccc1N1C(=O)S/C(=C\c2cccs2)C1=O,"inconclusive [activator, partial curve]"

row,Structure (SMILES),Potency
1,Nc1nonc1-n1nnc(C(=O)N/N=C/c2ccc(Cl)cc2Cl)c1CN1CCOCC1,"inconclusive [activator, single point]"
2,O=C(NCCc1ccc(Cl)cc1)c1ccc2c(c1)OCCO2,active: 0.398 µM
3,CC(=O)Nc1ccc(S(=O)(=O)c2ccc(N)cc2)cc1N,"inconclusive [activator, single point]"
4,CC(C)n1cc(CN2CCCC(C(=O)Nc3ccccc3Oc3cccnc3)C2)cn1 (stereo unspecified),inactive
5,COc1ccccc1-c1cc(C(=O)NC(C)c2ccccc2)no1 (stereo unspecified),inactive
6,O=C(Nc1nc2ccccc2s1)c1ccc([N+](=O)[O-])o1,"inconclusive [activator, partial curve]"
7,COc1ccc2nc(-c3ccccn3)[nH]c2c1,active: 1.26 µM
8,COc1cccc(-c2nc3ccccc3s2)c1O,"inconclusive [activator, single point]"
9,CCOc1ccc(C(=O)NC(=S)Nc2cccnc2)cc1,"inconclusive [activator, partial curve]"
10,O=C1/C(=C/c2ccco2)CCc2ccccc21,active: 3.98 µM
11,COc1ccccc1CCC(=O)Nc1ccc(C)cc1Cl,"inconclusive [activator, partial curve]"
12,O=C(NCCc1ccc(F)cc1)c1ccncc1,inactive
13,Cc1ccc(Nc2nc3ccccc3n3cnnc23)c(Cl)c1,"inconclusive [activator, single point]"
14,CCN1CCN(c2ccc(NC(=O)c3ccco3)cc2)CC1,"inconclusive [activator, partial curve]"
15,COC(=O)C(Cc1ccc(OC(=O)c2ccc(C(F)(F)F)cc2)cc1)N1Cc2ccccc2C1=O (stereo unspecified),"inconclusive [activator, partial curve]"
16,COc1ccc(OC)c(NC(=O)CSC2=NCCS2)c1,inactive
17,COC(=O)c1ccc(NC(=O)Nc2ccc(F)cc2F)cc1,"inconclusive [activator, partial curve]"
18,Cc1cccc(-c2noc(-c3c(C)noc3C)n2)c1,active: 1.58 µM
19,O=C1NCCN/C1=C\C(=O)c1cccc(Br)c1,"inconclusive [activator, single point]"
20,O=C(NCc1ccc(Cl)cc1)c1cccc2c1C(=O)N(CC1CCCO1)C2 (stereo unspecified),inactive
21,CCCOc1ccc(C(=O)NCCc2ccccc2)cc1,active: 0.447 µM
22,Cc1cc(C(=O)CSc2n[nH]c(N)n2)c(C)n1-c1ccc(F)cc1,"inconclusive [activator, partial curve]"
23,COc1ccc2oc(=N)c(C(=O)Nc3cccc(C)c3C)cc2c1,active: 2.24 µM
24,COc1ccc2cnn(CCOc3ccccc3)c(=O)c2c1OC,active: 0.794 µM
25,Nc1c(-c2ccccc2)cnc2cc(-c3ccccc3)nn12,active: 1.41 µM
